Results as given in PubChem BioAssay AID1963576 (National Center for Advancing Translational Sciences (NCATS), 2024).
The campaign covered roughly 46,000 compounds. About 60 (0.1%) were called active. Roughly 3% stayed inconclusive and do not appear here. Calls come from the whole dose curve; as a rule, active = well fitted inhibition curve with a large enough effect; inconclusive = small, poorly fitted or top-dose-only effect; inactive = no such curve, though single readings can be large or run the other way. The list shows a part of the results. Residues, ends and D or L forms follow the SMILES beside them. *: point of attachment. Cbz = O=C(OCc1ccccc1)*

Test: Primary qHTS assay for Inhibitors of ovarian cancer metastasis using an organotypic tumor microenvironment (TME) model.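 For activity change, negative = inhibition: plate controls were DMSO wells for no effect and tomatine positive control wells for full effect.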 Note: nearly all actives have a fitted effect of over 65% in size.
Conditions: SKOV3ip1-GFP adhesion/invasion on 3D omental model, fluorescence; series mostly up to 45.8 µM; activity change, negative = inhibition: at the top concentration
Summary of the method: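 A 3D layer of primary human omental fibroblasts, mesothelial cells, fibronectin and collagen I, grown 48 hr, received SKOV3ip1-GFP cells in serum-free medium plus compounds at 0.36-46 umol/L. After 2 hr RT and 16 hr 37 C, fixed adherent GFP cells were counted; normalized to DMSO and tomatine.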

Activity change, negative = inhibition, inactive:
COc1ccc(-c2cc3nc(C4CCN(C(=O)OC(C)(C)C)CC4)c(C(=O)Nc4cc(C)cc(C)c4)cn3n2)cc1 10.2%
CCC(Sc1nnc2c3ccccc3n(CC)c2n1)C(=O)Nc1nnc(C(C)C)s1 (stereo not given) -11%
Cn1c(=O)cc(SCC(=O)N2CCN(c3ccccc3F)CC2)c2ccccc21 -4.87%
COc1ccc2c(CNCCc3cccs3)c(C(=O)O)n(Cc3ccc(F)cc3Cl)c2c1 -12.8%
Cc1cc(C)cc(NC(=O)CCCc2nc(-c3ccco3)no2)c1 -1.01%
Cc1cc(-n2c(C)nc3ccccc3c2=O)ccc1NC(=O)c1ccccc1[N+](=O)[O-] -8.61%
COc1ccc(C)cc1NC(=O)c1cc(S(=O)(=O)N2CCCCC2)c[nH]1 -3.41%
COc1cc(NC(=O)CCc2c(C)nn(-c3ccc(N4CCCCC4)nn3)c2C)cc(OC)c1OC 33.6%
O=C(CCSCc1cccc(F)c1)NCCc1ccccc1 -1.12%
Cc1ccc(-n2ncc3c(NCCc4ccccc4)ncnc32)cc1Cl 0.939%
O=C(COCc1cc(-c2ccc(F)cc2)on1)Nc1cc(Cl)cc(Cl)c1 -7.07%
O=C(CCSCCc1ccccn1)Nc1ccccc1C(F)(F)F -10.7%
Cc1ccc2c(=O)c(C(=O)c3cccc(Cl)c3)cn(CC(=O)NCc3ccccc3)c2n1 1.8%
COc1cccc(OCCn2c(-c3ccc(Cl)cc3)nc3ccccc3c2=O)c1 2.67%
CCC(CC)C(=O)Nc1cccc(-c2cn3cccnc3n2)c1 2.42%
COc1cccc(Cn2c(=O)n(-c3cc(C)cc(C)c3)c(=O)c3oc4ccccc4c32)c1 -6.77%
COCCCNc1oc(-c2ccc(COc3ccccc3C)o2)nc1C#N 0.431%
Cc1ccc(N2CCN(S(=O)(=O)c3nnc(NC(=O)c4cccc(F)c4)s3)CC2)cc1 2.41%
CCc1ccc(C2=CC(c3cccc(OC)c3OC)n3c(nc4ccccc43)N2)cc1 (stereo not given) 13.3%
COc1ccc(CCNC(=O)Cn2c(=O)cc(C(F)(F)F)c3c(C)nn(C)c32)c(OC)c1 3.62%
CCOc1cc(CNC(=O)c2cc(-c3ccc(Cl)s3)nc3ccccc23)ccc1OC -6.59%
COc1ccc(NC(=O)CNC(=O)Cn2ccc3ccccc3c2=O)c(OC)c1 3.38%
CCCN1CCN(CCCNC(=O)c2cc3c(=O)[nH]c4ccccc4c3s2)CC1 -12%
O=C(Cn1cccc1C(=O)c1ccccc1)NCc1ccc(Cl)cc1 6.8%
CC(C)C[C@@H](C=O)NC(=O)[C@H](CC(C)C)NC(=O)[C@H](CC(C)C)NC(=O)OCc1ccccc1 (Cbz-Leu-Leu-Leu-aldehyde) -23.7%
Cc1cc(C)c2c(NC(=O)c3ccccc3Cl)c(C(=O)Nc3ccc(C)c(C)c3)sc2n1 3.19%
Cc1ccc(CNC(=O)c2cnc(N3CCCC3)nc2C)cc1 5.36%
C[C@@H]1[C@H](C)CC[C@]2(C(=O)O)CC[C@]3(C)C(=CC[C@@H]4[C@@]5(C)C[C@@H](O)[C@H](O)[C@@](C)(CO)[C@H]5CC[C@]43C)[C@@H]12 -3.83%
CCC1=Nc2cc(C(=O)NC3CCCC3)ccc2Sc2ccc(Cl)cc21 1.95%
COC(=O)c1ccc(NC(=O)C(C)N2Cc3ccccc3C2=O)cc1 (stereo not given) 7.2%
COc1ccc(N2CCN(C(=O)c3c(C)oc4ncn(CC(C)C)c(=O)c34)CC2)cc1 -0.554%
Cc1ccc2nc3sc(C(=O)Nc4ccc(F)cc4)cc3cc2c1 -8.46%
CCOC(=O)c1cc(S(=O)(=O)N2CCN(c3cccc(C)c3)C(C)C2)[nH]n1 (stereo not given) 4.29%
CCn1cc(C(=O)N2CCN(c3ccccc3OC)CC2)c2cc(OC)c(OC)cc2c1=O 13.5%
CCC(Oc1ccccc1)C(=O)Nc1nnc(S(=O)(=O)N2CCCC2)s1 (stereo not given) 2.31%
OC[C@H]1O[C@@H](n2cnc3c2NC=NC[C@@H]3O)C[C@H]1O 4.68%
CCOc1ccc(CCNc2ncnc3onc(C)c23)cc1OCC 6.53%
CCOC(=O)c1c(NC(=O)C(C)Oc2ccccc2F)sc(C(C)=O)c1C (stereo not given) 0.664%
COc1ccc(CCNC(=O)CCCCn2c(=O)c3ccccc3n(Cc3cccc(C)c3)c2=O)cc1OC -10.6%
CCOC(=O)c1cnc2c(OC)cccc2c1N1CCN(c2ccccc2F)CC1 -1.04%
COc1ccc(CNC(=O)c2ccc(-c3nc(CSc4ccccc4)c(C)o3)cc2)cc1 -13.2%
COc1ccc(NC(=O)c2oc3ccccc3c2NC(=O)c2cc(=O)c3ccccc3o2)cc1 2.46%
COc1ccc(C(=O)Nc2ccc3c(c2)CCCN3S(=O)(=O)c2ccc(C)cc2)cc1 -11.2%
CCc1ccc(-c2nc(CN3CCCC(C(=O)NCc4ccccc4Cl)C3)c(C)o2)cc1 (stereo not given) 8.2%
COc1cc(C(=O)N(CCCN(C)C)c2nc3c(OC)cccc3s2)cc(OC)c1OC 0.0491%
O=C(NCCc1csc(-c2cccc(F)c2)n1)c1ccco1 2.63%
COc1cc(-c2cc3n(C)c(C)c(CCC(=O)NC4CCC(C)CC4)c(=O)n3n2)cc(OC)c1OC (stereo not given) -9.24%

outcome, inactive:
Cc1ccc(N2CC(C(=O)NCCS(=O)(=O)N3CCN(c4ccc(F)cc4)CC3)CC2=O)cc1 (stereo not given)
COc1ccc(CCNC(=O)c2cc(-c3ccc(C)cc3)nc3n[nH]c(-c4ccc(F)cc4)c23)cc1OC
CCc1ccccc1NC(=O)Cn1cc(C(=O)c2ccncc2)c(=O)c2cc(C)ccc21
CC1=C(C(=O)Nc2cccc(F)c2)C2(CCCCCC2)OC1=O
COc1cc(OC)c(NC(=O)Cn2c(=O)nc(-c3ccccc3)c3ccccc32)cc1Cl
CN(C(=O)CSc1nc2ccc(NC(=O)c3ccco3)cc2s1)c1ccccc1
CCc1ccccc1NC(=O)c1nnn(CC(=O)Nc2c(C)cc(C)cc2C)c1N
CCOc1cccc2sc(=NC(=O)c3ccc(S(=O)(=O)N4CCOCC4)cc3)n(C)c12
CCc1ccc(OCC(=O)Nc2c(C(=O)c3ccc(Br)cc3)oc3ccccc23)cc1
CCc1ccc(NC(=O)c2ccc(CNS(=O)(=O)c3ccc4c(c3)C(C)(C)C(=O)N4C)cc2)cc1
CCCCN(CCCC)CCn1cnc2c([nH]c3ccc(OC)cc32)c1=O
Cc1ccc2c(c1)-c1nc(-c3ccccc3)cc(-c3ccccc3)c1CO2
O=C(NC1CCCC1)c1ccc2c(c1)N(Cc1c(F)cccc1Cl)C(=O)c1ccccc1S2
